Measured values from PubChem BioAssay AID686978 (National Center for Advancing Translational Sciences (NCATS), 2013).
“And” between values parts separate entries of the source, which are not always exact repeats. Equal entries are not always repeated. Out of some 420,000 compounds screened, about 64,000 (15%) were called active. Inconclusive results, whose numbers are uncertain, are shown with a selection of clear calls. The call rests on the fitted dose curve; in most records, active means well fitted inhibition curve with a large enough effect; inconclusive means small, poorly fitted or top-dose-only effect; inactive means flat fitted curve, though single readings scatter. Potencies of inconclusive entries are left out as doubtful fits.

Assay: qHTS for Inhibitors of human tyrosyl-DNA phosphodiesterase 1 (TDP1): qHTS in cells in absence of CPT; further: nearly all actives have a fitted effect of over 55% in size
Details: DT40 Tdp1-/- hTDP1 cells, no CPT, ATP luminescence, 48 h; activity change, negative = growth inhibition: at 46.2 µM (top of the series) unless noted
Outline: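 Growth kinetics read by CellTiter-Glo luminescence after ≥48 hr at 37 °C. Cells: DT40 Tdp1-/- stably carrying human TDP1, 400 per well, compound exposure in the absence of CPT (DMSO vehicle).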
On the % scale 0 is the no-effect control and ±100 the full control effect; potency means the concentration at half of the fitted maximal effect; tags describe the fitted curve by direction and shape.

SMILES | Potency | activity change, negative = growth inhibition
Cn1cc(-c2cc3n(n2)CCC(=O)N3CCCC(=O)NCc2ccc(F)cc2)c2ccccc21 | inconclusive [inhibitor, single point] | –
CCSc1nc2nn(-c3ccccc3)c(=O)c-2c2n1CCCCC2 | inconclusive [inhibitor, partial curve, poor fit] | –
CC(=O)c1sc(NC(=O)C2CCN(C(=O)c3ccc(F)cc3)CC2)nc1-c1ccccc1 | inconclusive [inhibitor, partial curve] | –
CCOC(=O)CC(NC(=O)Cc1ccc(F)cc1)c1ccccc1Cl (configuration not stated) | inconclusive [inhibitor, single point] | –
O=C(NCCc1ccccc1)C(=O)NCC1OCCN1S(=O)(=O)c1ccc(Br)cc1 (configuration not stated) | active: 16.4 µM | –
CCN(C(=O)COC(=O)/C=C/c1ccc(F)cc1)C1CCCCC1 | inconclusive [inhibitor, single point] | –
Cc1ccc(NC(=O)c2cc3ccccc3o2)cc1Cl | inconclusive [inhibitor, partial curve, poor fit] | –
O=S(=O)(c1ccccc1)N1CCC[C@@]2(CCN(c3ccncc3)C2)C1 | active: 18.4 µM | –
Cc1cc(=O)n(CCCO)c(O)c1C#N | inactive | –
CCN1C(=O)C(C(=O)c2ccccc2)SC1=S (configuration not stated) | inconclusive [inhibitor, single point] | –
Cc1cc(/C=C2\C(=O)NN(c3ccccc3)C2=O)c(C)n1-c1ccccc1O | active: 14.6 µM | –
COc1ccc(S(=O)(=O)N2CCC(C(=O)OCC(=O)c3ccccc3)CC2)cc1[N+](=O)[O-] | inactive | –
CSc1ccc(C(=O)NCC(=O)O)cc1[N+](=O)[O-] | inactive | –
Cc1cc(F)ccc1S(=O)(=O)N1CCCOC1CNC(=O)C(=O)NCCc1c[nH]c2ccccc12 (configuration not stated) | inconclusive [inhibitor, single point] | –
COc1ccc(N2C(=O)/C(=C/c3ccc([N+](=O)[O-])cc3)N=C2C)cc1 | inconclusive [inhibitor, partial curve] | –
CCOC(=O)C1CCCN(C(=O)COC(=O)c2ccc(C#N)cc2)C1 (configuration not stated) | inactive | –
CCn1c(SCC(=O)Nc2cc3oc4ccccc4c3cc2OC)nnc1-c1cccs1 | inconclusive [inhibitor, single point] | –
CCN(CC)C(=O)C1=C(C)N(CCC2=CCCCC2)C(=O)C(CC(=O)NCc2cccc3ccccc23)C1 (configuration not stated) | inconclusive [inhibitor, single point] | –
Cc1ccc(NC(=O)CSc2nc3nc(C)c(Cc4ccccc4)c(C)n3n2)cc1 | inconclusive [inhibitor, single point] | –
Cc1ccc(NC(=O)CN(C)C(=O)c2cccc(Br)c2)cc1 | inconclusive [inhibitor, partial curve] | –
N#C/C(=C\c1ccc(O)c(O)c1)C(=O)NCCCc1ccccc1 | active: 7.5 µM and active: 4.11 µM | –
NNC(=O)c1cccn(Cc2cccc(C(F)(F)F)c2)c1=O | inconclusive [inhibitor, single point] | –
Cn1nc(C(=O)O)c(=O)n(C)c1=O | inactive | –
COc1ccc([N+](=O)[O-])c(C=CC(=O)c2ccccn2)c1 | active: 2.31 µM | –

SMILES | Potency | activity change, negative = growth inhibition
Cc1cc(N/N=C/c2ccc(O)cc2)c2cccc(C)c2n1 | inconclusive [inhibitor, single point] | –
CC(=O)CSc1cc(-c2ccccc2)nc2ncnn12 | inconclusive [inhibitor, partial curve, poor fit] | –
O=C(Nc1ccc2c(c1)OCCO2)C1c2ccccc2OCC(=O)N1Cc1ccco1 (configuration not stated) | inactive | –
CC1(C)Cc2c(sc3c2c(=N)n(Cc2ccco2)c(=O)n3CC(=O)Nc2cccc(Cl)c2)CO1 | active: 20.6 µM | –
COc1ccc(-c2cc(C(F)(F)F)n3nc(C(=O)Nc4cc(C(F)(F)F)ccc4Cl)cc3n2)cc1OC | inconclusive [inhibitor, single point] | –
CCOc1cc(-c2c(C)c(CC)nc(N)c2C#N)ccc1O | – | inconclusive: -32.6% [inhibitor]
O=C(COC(=O)CCC(=O)c1ccccc1)NCCc1ccccc1 | inconclusive [inhibitor, single point] | –
CCCCc1ccc(-c2csc(/C(C#N)=C\c3ccc(C)o3)n2)cc1 | inactive | –
CCOc1ccc(NC(=S)c2ccncc2)cc1 | inconclusive [inhibitor, partial curve] | –
O=C(/C=C/c1ccco1)N1CCc2ccccc21 | inconclusive [inhibitor, single point] | –
Cc1ccc(C(=O)OCC(=O)N2CCCC2)cc1 | inactive | –
C=CCCCCCCCCc1nc(SCC(C)=O)n[nH]1 | inconclusive [inhibitor, partial curve, poor fit] | –
CCCCOc1ccccc1NC(=O)CC1Sc2ccccc2NC1=O (configuration not stated) | inconclusive [inhibitor, single point] | –
O=C(COC(=O)c1ccccc1O)NC1CCCc2ccccc21 (configuration not stated) | inconclusive [inhibitor, single point] | –
O=C(CSC1=NCCS1)Nc1nc2ccccc2s1 | inconclusive [inhibitor, partial curve, poor fit] | –
CCC(C)c1ccc(NC(=O)N2CCOCC2)cc1 (configuration not stated) | inactive | –
CCC(=O)Nc1cccc(NC(=O)CSc2nnc(-c3ccc(NS(C)(=O)=O)cc3)n2C)c1 | inactive | –
CCC[C@@H]1CCCO[C@@](C(=O)NCc2ccc(S(C)(=O)=O)cc2)(C(F)(F)F)C1 | inconclusive [inhibitor, single point] | –
C[N+]1(CC(=O)OCCCC2CCCCC2)CCCC1 | active: 20.6 µM | –
COc1ccc(CC(=O)O/N=C(\N)c2ccncc2)cc1OC | inconclusive [inhibitor, single point] | –
CCCNC(=O)NC(=O)CSc1ccc(C)cc1C | inactive | –
Cc1ccc(S(=O)(=O)NOCc2ccccc2)cc1 | inconclusive [inhibitor, single point] | –
CC(OC(=O)Cn1[nH]c(=O)c2ccccc2c1=O)C(=O)Nc1ccc(Cl)cn1 (configuration not stated) | inactive | –
COc1cc(OC)c(OC)cc1CN(C)CC1CCCN(CCc2ccccc2F)C1 (configuration not stated) | inconclusive [inhibitor, partial curve, poor fit] | –

SMILES | Potency | activity change, negative = growth inhibition
O=c1nc2ccccc2c2n1CC(CN1CCN(c3ccc(F)cc3)CC1)N2 (configuration not stated) | inconclusive [inhibitor, single point] | –
Cc1ccccc1Oc1ccc(Oc2ccccc2C)nn1 | inactive | –
CCC1CC(CSc2ncn[nH]2)OC1=O (configuration not stated) | inactive | –
CCC(CC)C(=O)N(C)c1c(C)nc2c(OCc3cccc(Cl)c3)cccn12 | active: 11.6 µM | –
CN1OC[C@@H]2CN(Cc3ccccc3)[C@H](c3cccc(-c4ccc(C#N)cc4)c3)C[C@@H]21 | inconclusive [inhibitor, single point] | –
CN(CC(=O)Nc1ccc(Cl)c(C(F)(F)F)c1)C(=O)C1CC(=O)N(Cc2ccco2)C1 (configuration not stated) | active: 23.1 µM | –
CCOC(=O)N1CCN(CCC(=O)Nc2ccc(Br)c(C)c2)CC1 | inconclusive [inhibitor, partial curve] | –
Clc1ccccc1CO/N=C1\CCCc2nonc21 | inactive | –
CC(=O)N(c1nc(CCl)cs1)c1ccc(C)cc1C | inactive | –
Cc1nc2cc(S(=O)(=O)N(C)C)ccc2n1-c1ccccc1 | inconclusive [inhibitor, partial curve, poor fit] | –
CN(C(=O)COC(=O)c1ccc(Br)o1)c1c(N)n(Cc2ccccc2)c(=O)[nH]c1=O | inactive | –
Cc1nn(C)c(Cl)c1CN1CCCC(C(=O)Nc2cccc(-n3cccn3)c2)C1 (configuration not stated) | inconclusive [inhibitor, single point] | –
Cc1c(OC(C)C(=O)N[C@@H](Cc2ccccc2)C(=O)O)ccc2c3c(c(=O)oc12)CCCC3 (some centres not stated) | inactive | –
O=C(Cc1ccccc1)Nc1ncccc1Cl | inconclusive [inhibitor, single point] | –
CN(C)c1ccc(/C=C/c2ccnc3ccc(O)cc23)cc1 | inconclusive [inhibitor, single point] | –
O=C(c1cccc(F)c1F)N1CCOc2ccc(CN3CCC(Oc4cccnc4)CC3)cc2C1 | inconclusive [inhibitor, single point] | –
COc1cccc(/C=N/n2nnnc2N)c1O | inactive | –
CC(C)[C@@H](CO)NC(=O)[C@H]1O[C@@H](n2cnc3c(N)ncnc32)[C@H](O)[C@@H]1O | inactive | –
O=[N+]([O-])c1ccccc1S(=O)(=O)Oc1ccccc1/C=N/n1cnnc1 | active: 16.4 µM | –
COc1ccc(CCNC(=O)C(=O)NCC2OCCN2S(=O)(=O)c2cc(F)ccc2F)cc1 (configuration not stated) | inconclusive [inhibitor, single point] | –
Cc1ccc(CSCCNC(=O)CN(c2cc(C)ccc2C)S(C)(=O)=O)cc1 | inconclusive [inhibitor, single point] | –
CC(=O)c1ccc(Nc2nc(C(N)c3ccccc3)cs2)cc1 (configuration not stated) | inconclusive [inhibitor, single point] | –
FC(F)(F)COc1nc(N2CCCCC2)nc(N2CCNCC2)n1 | inconclusive [inhibitor, single point] | –
O=C(COc1ccc2ccc(=O)oc2c1)NC1CCCCC1 | inconclusive [inhibitor, single point] | –
